For this assay, the target named is T1, Human IL-17A重组蛋白 (IL-17A-His) (Human, UniProt Q16552 24-155, biotinylated (Biotin-IL-17A-His) in the ELISA of paragraph 259; site not stated).
T1 construct: Recombinant antigen expressed in E. coli BL21 from pET28a, purified on a nickel column; also called IL-17A抗原蛋白; IL-17抗原
T1 sequence: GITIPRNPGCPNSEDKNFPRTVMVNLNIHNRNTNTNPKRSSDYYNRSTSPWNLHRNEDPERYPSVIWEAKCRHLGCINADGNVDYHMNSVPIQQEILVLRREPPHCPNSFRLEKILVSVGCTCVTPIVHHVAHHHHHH
As to the kind of experiment: ELISA: antibody coated at 2 ug/mL, Biotin-IL-17A-His titrated from 10 ug/mL (5-fold, 7 points), HRP-Streptavidin.

Among the data in patent publication CN117843802A (BEILAI PHARMACEUTICAL CO LTD, dated 2024) are EC50 values, retold here.

B1: 双价单域抗体(1-C11+1-G12) (Fc fusion)
chain: DVQLVESGGGLVQPGGSLRLSCAASESLLRLYAMGWYRQLPGQEREWVAIHTTSDTTNYRDSVKGRFTLSRDVATNTIYLQMTSLKPEDTAVYYCHVTSMRDSQNYWGQGTQVTVSSGGGGSGGGGSGGGGSEVQLVESGGGLVQPGGSLRLSCVAWGFSFSIYSVNWYRQAPGKERELVAGITKGGLKDYADSVKGRFTISRDNAKNAVYLRMNMLKPEDTAVYYCNAGRENGYWGQGTQVAVST[human IgG1 Fc not spelt out]
notes: also called 二价单域抗体; 串联抗体
For orientation: EC50 means the midpoint of the concentration-response curve. A lower EC50 goes with higher potency in that assay. The molecule B1 had a concentration giving a half-maximal response (EC50) of 1.47 µg/mL.
